First the molecules themselves.
B1: chr7:101138022:101138407:+|3pUTR|ENSG00000106366|msi1|FALSE|unique (ssRNA)
RNA: GGGAGUUCUACAGUCCGACGAUCCUCUUGGUGGGGAGGGGUGUACCUAAAUAUUUAUCAUAUCCUUGCCCUUGAGUGCUUGUUAGAGAGAAAGAGAACUACUAAGGAAAAUAAUAUUAUUUAAACUCGCUCCUAGUGUUUCUUCAACAGAGGAUUGAGCAUCA
B2: chr10:32268825:32268926:-|3pUTR|ENSG00000120616|unk|FALSE|unique (ssRNA)
RNA: GGGAGUUCUACAGUCCGACGAUCUGGGGACUUGACAGCAAUGCUCAUCUCUCAUGCUUCAAUUUUUCUUUUCUUACUGUUAAUAGGAAAAAAAUCAACAUCUGUAAAUUAAGAAUACAGCAAUUAUCUGUACAGUACUGCAUACAACAGAGGAUUGAGCAUCA
B3: ENSG00000109180:stop:overlap|stop_codon|ENSG00000109180|stop_codon|NA|stop_codon (ssRNA)
RNA: GGGAGUUCUACAGUCCGACGAUCCAACAGAGGAAGAAAGGAGAGUCUUCGCAGAAUGCAAUGAUGAAAGCUUCUGGUUCAGAUAGAUGGGGUUUCACCGUGUUAACCAGGAUGGUCUCCAUCUCCUGACCUUGUGAUCCACCUCAACAGAGGAUUGAGCAUCA
B4: chr1:231019617:231019718:-|3pUTR|ENSG00000182118|msi1|FALSE|unique (ssRNA)
RNA: GGGAGUUCUACAGUCCGACGAUCGCAGGGAGUUCUCCGCGGAUGCAUGGUGGCAGUCUGCUUUGAUGGCAGCAGUUUCUGCUUAGGUGACCUAGAGGUCCUCAGCAGUAUCCUCCACACCUAUUUAUUGAGGUGCACCUGCUGCAACAGAGGAUUGAGCAUCA
B5: ENSG00000124766:be:win_3451|3pUTR|ENSG00000124766|bound_else_gene|NA|bound_elsewhere_windowed (ssRNA)
RNA: GGGAGUUCUACAGUCCGACGAUCAGAGGCUUUAAAACUGGUGCAAUUACAGCAAAAAGGGAUUCUGUAGCUUUAACUUGUAAACCACAUCUUUUUUGCACUUUUUUUAUAAGCAAAAACGUGCCGUUUAAACCACUGGAUCUACAACAGAGGAUUGAGCAUCA
B6: chr1:233671823:233671924:+|3pUTR|ENSG00000135750|msi1|total|mutant (ssRNA)
RNA: GGGAGUUCUACAGUCCGACGAUCUGCUGCUGUGGUCCGAAGCAGAUUUUAUACUUUUAACUGGAAACUUUGGGGUUUGCAUUCCGAUCAUUCCGCUGAUGGCUAAACCGCAAAAUUUAUAUUCCGAAGCAAAAAAAAAAAGCACAACAGAGGAUUGAGCAUCA
B7: chr15:90998672:90999054:-|three_prime_utr|ENSG00000184056|control|control|control (ssRNA)
RNA: GGGAGUUCUACAGUCCGACGAUCAUAACCAAGUGUCCACCAACUACCUGCUAAGAGCCGGGAGCAUGGAACGUGUUGGGAUUUAGAGAACAUUAUCUGAGAAAAGAGUUCACUUCCUGCUCCCAGGAUAUUUCUCUUUUCUGUCAACAGAGGAUUGAGCAUCA
B8: ENSG00000124225:stop:overlap|stop_codon|ENSG00000124225|stop_codon|NA|stop_codon (ssRNA)
RNA: GGGAGUUCUACAGUCCGACGAUCCCCUAGAGAGCGCAGCCAUCUGGAGCAAAGAGAAGGAUAAACAGAAAGGACACCCUCUCUAGGGUCCCCAGGGGGGCCGGGCUGGGGCUGCGUAGGUGAAAAGGCAGAACACUCCGCGCUCAACAGAGGAUUGAGCAUCA
B9: ENSG00000070961:be:win_5401|3pUTR|ENSG00000070961|bound_else_gene|NA|bound_elsewhere_windowed (ssRNA)
RNA: GGGAGUUCUACAGUCCGACGAUCCUAUAACUGAGAGUGCUGACCAAGCAAAGAAACAUUUAGUUGAUGGUGCUUGAUAUUUUUGGUGGGUGGGGGAAAUCUUUUUCUCACCAUCAAAUCUUUGCAGUAAUCCUCUGCAGGUCUCAACAGAGGAUUGAGCAUCA
B10: chr3:154315110:154315224:-|CDS|ENSG00000174953|unk|total|mutant (ssRNA)
RNA: GGGAGUUCUACAGUCCGACGAUCUCAGAGAACAAACUUGACAUCCAGGAAAAGAAGUUGAUAAAUCAAGAAAAAAAAAUGUUCCGAAUCAGGAACAGAUCAUAUAUUGACCGAGAUUCUGAGUAUCUCUUGCAAGAAAAUGAACAACAGAGGAUUGAGCAUCA
B11: chr6:38153770:38153871:+|3pUTR|ENSG00000156639|msi1|total|mutant (ssRNA)
RNA: GGGAGUUCUACAGUCCGACGAUCGGUGGACAGGAUCAGGAUUCCCUUGAAAGCCCAGGCAGGGUGAGCAGUCCCAGUGGUCCCCGUGCCGCAUCAGAUCCAGGUGGGUGAGGGCAGGAGGCCCCUGCGGAGGCAGCGUGGAUCCAACAGAGGAUUGAGCAUCA
B12: chr19:1925605:1925706:+|3pUTR|ENSG00000227500|msi1|total|mutant (ssRNA)
RNA: GGGAGUUCUACAGUCCGACGAUCUUUGGACACCCCAGGCUGCCACCCCUCCCCACCCGUUCACCCCCAGGAUGCUGUUGCUGCCGGACGCCUGCUGCCCUGGAGCCCUCCCCAGGAUGUGAGCCAGUCCCCUCGCUGGUACGGCAACAGAGGAUUGAGCAUCA
B13: ENSG00000198589:be:win_4201|CDS|ENSG00000198589|bound_else_gene|NA|bound_elsewhere_windowed (ssRNA)
RNA: GGGAGUUCUACAGUCCGACGAUCGAAGCCUCUGUGACAUUUUUGCAGAGGCUAAUUAGCCUUGUGGAUGUGCUUAUAUUUGCAAGUUCUCUUGGCUUUACUGAAAUUGAAGCUGAAAAAAGUAUGUCAUCUGGAGGAAUUUUGCAACAGAGGAUUGAGCAUCA
B14: chr1:6522505:6522606:-|3pUTR|ENSG00000162408|msi1|total|mutant (ssRNA)
RNA: GGGAGUUCUACAGUCCGACGAUCCUGGGAUUACAGGCGUGAGCCACUGCGCCUGGCCUGAAGCUAUUCUUUACAAAAGCUCUCCGUUUUUGUUUGUUUGUUUGUUUUUUUCUUUUGCGACGGACUCUCUGUCGCCAAGGCUGGCAACAGAGGAUUGAGCAUCA
B15: chr2:30159184:30159288:+|3pUTR|ENSG00000119801|unk|total|mutant (ssRNA)
RNA: GGGAGUUCUACAGUCCGACGAUCAAAAUCUGGGCUGUCCGAGUGAAAAAGUGUGUUUUAUGUCAAUUGUGAAAGGAAAAUGUCCGGAGUAUGGUUUUUAAACUUGGGCUUCAUUUUAAACUUUUUUUUUUAAACCCAGUUAUUCAACAGAGGAUUGAGCAUCA
B16: chr19:4361374:4361475:-|3pUTR|ENSG00000141985|msi1|FALSE|unique (ssRNA)
RNA: GGGAGUUCUACAGUCCGACGAUCCAGGACCCCACACUUGGGUGGGGGGGCUUAUCUGGGUGGGUGGGGAUGCCUGUUUACACUAGCGCUGACUCCCAACGGUGACGGCUCCCUUCCCCACUCCAUGGCGCCAGCCUCCUCCCCCAACAGAGGAUUGAGCAUCA
B17: chr17:81557321:81557422:-|3pUTR|ENSG00000182446|msi1|total|mutant (ssRNA)
RNA: GGGAGUUCUACAGUCCGACGAUCAGCAUUUCCCUUACUCUGAAGUUCCGGCAUUCACAUCAUUCAUGUUUUCUUUUGUCUUUCCGCUAAAGGAAAAGCAUUGGCGAUUUGUCUGAUUCUGGUUUUGAGUUACUCUUUGUUCAGCAACAGAGGAUUGAGCAUCA
B18: chr9:101424453:101424812:-|three_prime_utr|ENSG00000136872|control|control|control (ssRNA)
RNA: GGGAGUUCUACAGUCCGACGAUCGCUUGACUUUCCAACACGGAGAAGCAUUGUUUUCUUUGGGCCAAGAAGGUAUCUACCGAUAGUGUCUAUUAGGCAUUUGAAAAUGUGGCAGUAGAGGUCAGUAUGAGGAUUGAGGCUAGACAACAGAGGAUUGAGCAUCA
B19: chr1:36287001:36287112:+|CDS|ENSG00000054118|unk|total|mutant (ssRNA)
RNA: GGGAGUUCUACAGUCCGACGAUCCCCCUCCAGUCUGUGGUGGUGAGGCGGCGGUCACCCCGUCCCCGCCCCGUGCCAAAACCCCGUCCUCCACUUUCCAGCACAUCCCAGAUGGGCUCAACUCUGCCGAGUGGUGCCGGGUAUCAACAGAGGAUUGAGCAUCA
B20: chr2:216675988:216676089:-|3pUTR|ENSG00000115461|msi1|FALSE|unique (ssRNA)
RNA: GGGAGUUCUACAGUCCGACGAUCACUAAAAUGCAUUCCAUUCCUCUGAAAGCAAAACAAAUUCAUAAUUGAGUGAUAUUAAAUAGAGAGGUUUUCGGAAGCAGAUCUGUGAAUAUGAAAUACAUGUGCAUAUUUCAUUCCCCACAACAGAGGAUUGAGCAUCA
B21: chr2:70149884:70150355:-|three_prime_utr|ENSG00000115998|control|control|control (ssRNA)
RNA: GGGAGUUCUACAGUCCGACGAUCAGAUAAUAAUCUUUUGCUGCUUAAUUUGCACAUCCCCACCCCUUGACAACUUUAAAUGCUAGUUAGGCACUUAGAUGGCCCUGUUCCUUGGUAAACUGCUCUUAGCUAAGAUGCAAAUUCCAACAGAGGAUUGAGCAUCA
B22: chr19:53353201:53353302:+|CDS|ENSG00000213799|msi1|total|mutant (ssRNA)
RNA: GGGAGUUCUACAGUCCGACGAUCCACAAUUCAGCCCUUGAAAUUCAUAAGGCAAUUCAUACUGGAGAAAAACCUUACAAGUGCCGUGAAUGUGGCAAGGUUUUUAACCGAAAAGCAAACCUUUCACGUCAUCACCGACUUCAUCAACAGAGGAUUGAGCAUCA

Some of the results follow.

For the assay, the target named is T1, UNK ZnF1-6 (called full-length) (human, UniProt Q9C0B0 30-357).
T1 sequence: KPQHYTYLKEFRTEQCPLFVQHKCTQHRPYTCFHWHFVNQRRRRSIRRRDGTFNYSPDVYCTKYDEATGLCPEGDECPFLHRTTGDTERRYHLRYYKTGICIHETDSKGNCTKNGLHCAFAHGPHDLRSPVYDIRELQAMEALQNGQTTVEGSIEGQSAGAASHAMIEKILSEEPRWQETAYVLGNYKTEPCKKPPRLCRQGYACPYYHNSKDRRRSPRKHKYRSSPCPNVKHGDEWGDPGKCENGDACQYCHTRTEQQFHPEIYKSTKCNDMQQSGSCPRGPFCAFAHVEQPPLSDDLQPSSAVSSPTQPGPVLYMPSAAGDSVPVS
Briefly: nsRBNS (natural sequence RNA bind-n-seq); RBNS binding buffer (assumed for nsRBNS): 25 mM Tris pH 7.5, 150 mM KCl, 3 mM MgCl2, 0.01% Triton X-100, 500 ug/ml BSA, 20 U/ml SUPERase-In, 4 C; UNK is unkempt and MSI1 is Musashi-1; names of the RNAs are library labels; protein concentration not given here; high values mean tight binding.
For B1, the binding signal is 1.63 enrichment R. In the case of B2, the binding signal was found to be 0.657 enrichment R. The result for B3 reads 1.36 enrichment R; that for B4, 0.802 enrichment R; that for B5, 0.648 enrichment R. In turn, B6 came in with a binding signal of 0.403 enrichment R. The result for B7 reads 0.529 enrichment R. For the molecule B8, the binding signal is 0.377 enrichment R. In the case of B9 it was 0.749 enrichment R; in that of B10, 0.361 enrichment R; in that of B11, 0.635 enrichment R. In turn, B12 returned a binding signal of 1.35 enrichment R.

As to B13, the binding signal came to 0.355 enrichment R. B14 came in with a binding signal of 0.629 enrichment R.

The molecule B15 showed a binding signal of 1.06 enrichment R.

B16: the binding signal is 0.768 enrichment R. In the case of B17 it was 0.377 enrichment R; in that of B18, 0.642 enrichment R. For the molecule B19, the binding signal came out at 0.756 enrichment R. In the case of B20 it was 0.383 enrichment R; in that of B21, 0.502 enrichment R. In the case of B22 it was 0.237 enrichment R.

The values above are taken from article PMC12136788.
